Measured values taken from paper PMC4336329 (PLoS ONE, 2015).
Hit rate of the full screen: of about 310,000 compounds, about 14,000 (4.5%) showed an effect of 50% or more. The effect is printed as a negative number. Some of the results follow.

target: human ether-à-go-go-related gene (hERG) potassium channel (human, UniProt Q12809); assay: primary screen, population patch clamp on CHO cells stably expressing hERG
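Also: peak tail current of the secondary pulse compared with the same well before compound.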

human ether-à-go-go-related gene (hERG) potassium channel, sequence (Q12809 whole entry, looked up): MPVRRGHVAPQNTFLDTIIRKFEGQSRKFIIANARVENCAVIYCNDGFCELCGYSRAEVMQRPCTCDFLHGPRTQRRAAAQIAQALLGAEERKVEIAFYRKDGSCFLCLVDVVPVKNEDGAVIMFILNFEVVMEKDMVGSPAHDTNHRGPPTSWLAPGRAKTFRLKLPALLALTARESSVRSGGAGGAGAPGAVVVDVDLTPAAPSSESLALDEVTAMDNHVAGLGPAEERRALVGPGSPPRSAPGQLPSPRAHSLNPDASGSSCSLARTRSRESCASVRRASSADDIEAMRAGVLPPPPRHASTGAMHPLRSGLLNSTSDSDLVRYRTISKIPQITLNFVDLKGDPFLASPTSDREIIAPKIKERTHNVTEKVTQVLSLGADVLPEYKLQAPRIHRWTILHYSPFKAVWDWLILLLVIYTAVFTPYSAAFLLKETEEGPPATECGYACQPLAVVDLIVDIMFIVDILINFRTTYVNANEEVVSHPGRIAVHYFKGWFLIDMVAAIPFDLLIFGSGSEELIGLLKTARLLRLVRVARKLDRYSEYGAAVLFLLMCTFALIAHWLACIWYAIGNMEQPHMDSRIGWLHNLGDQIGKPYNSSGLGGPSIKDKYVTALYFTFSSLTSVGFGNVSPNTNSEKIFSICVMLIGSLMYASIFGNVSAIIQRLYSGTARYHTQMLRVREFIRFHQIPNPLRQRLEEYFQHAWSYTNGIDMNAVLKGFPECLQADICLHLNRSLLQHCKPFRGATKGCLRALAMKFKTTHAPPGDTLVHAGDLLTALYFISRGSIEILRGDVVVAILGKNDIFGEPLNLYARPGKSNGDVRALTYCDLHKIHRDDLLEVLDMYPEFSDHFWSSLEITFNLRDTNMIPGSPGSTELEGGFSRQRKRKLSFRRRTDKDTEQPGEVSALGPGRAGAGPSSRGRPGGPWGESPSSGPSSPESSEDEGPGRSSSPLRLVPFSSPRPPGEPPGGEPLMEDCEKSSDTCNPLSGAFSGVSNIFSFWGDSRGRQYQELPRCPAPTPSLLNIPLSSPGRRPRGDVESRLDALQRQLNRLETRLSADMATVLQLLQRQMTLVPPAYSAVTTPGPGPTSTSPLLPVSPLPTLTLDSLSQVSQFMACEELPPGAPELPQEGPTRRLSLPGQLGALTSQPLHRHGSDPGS

Compound	hERG current change (%, negative = inhibition) at 10uM [%]
COC(=O)CC1=C(C(=O)OC)C(c2cccc(OCC(N)=O)c2)C(C#N)=C(N)O1 (stereo not drawn)	7.33
O=C(NC(=S)Nc1cccc(Cl)c1N1CCOCC1)c1cccs1	27.3
COc1ccc(S(=O)(=O)N2CCCC2)cc1C(=O)N1CCCCC1	16.9
Cc1cc(C)cc(-n2ncc3c2CCCC3NC(=O)CCN2Cc3ccccc3C2=O)c1 (stereo not drawn)	-54.3
COc1ccccc1S(=O)(=O)NCc1ccc(C(=O)NC(C)c2ccccn2)cc1 (stereo not drawn)	15.5
CN1CCCN(S(=O)(=O)c2ccc3c(c2)OCCO3)CC1	8.07
O=C(CCl)NNC(=O)c1c(O)c2ccccc2[nH]c1=O	8.53
CC(C)C(C)NC(=O)Cn1cnc2c(oc3ccccc32)c1=O (stereo not drawn)	-9.02
COc1ccc(Br)cc1C(=O)NC(=S)Nc1ccc(CN2CCOCC2)cc1	7.79
Cc1cc(SCC(=O)N/N=C/c2ccccc2C(=O)O)c(C)cc1Br	12.7
C=CCOC(=O)C1=C(C)NC(=O)NC1c1cn(-c2ccccc2)nc1-c1cccs1 (stereo not drawn)	-4.51
O=[N+]([O-])c1ccccc1N/N=C1\CCc2ccccc21	9.66
C(#Cc1ccccc1)CN1CCCCC1.Cl	0.475
CCOc1ccc(-c2n[nH]c(C)c2Oc2ccc(OC)cc2)c(O)c1	-6.31
O=C(CSc1nc(Nc2ccccc2)nc(N2CCOCC2)n1)Nc1ccc([N+](=O)[O-])cc1	9.65
CCOC(=O)Cn1c(=O)c2c(nc3n2CCS3)n(C)c1=O	9.98
CC(=O)Nc1cccc(/C(C)=N/N2C(C)CCCC2C)c1 (stereo not drawn)	15.6
COc1ccc(N2CCN(C(=O)COC(=O)c3ccc(C)o3)CC2)cc1	2.97
COc1cc(/C=C/C(=O)N2CCCN(C(=O)/C=C/c3cc(OC)c(OC)c(OC)c3)CC2)cc(OC)c1OC	-0.809
O=C(NCc1cccnc1)C1c2ccccc2C(=O)N1Cc1ccco1 (stereo not drawn)	-8.33
O=C(O)c1ccccc1Cc1nc2cc(Cl)ccc2c(=O)[nH]1	18.8
Oc1cccc2ccc(/C=C/c3c(F)cccc3Cl)nc12	34.1

Compound	hERG current change (%, negative = inhibition) at 10uM [%]
CCOC(=O)C1CCN(C(=O)COC(=O)c2ccc(Br)o2)CC1	-3.64
O=C1CC(NS(=O)(=O)c2cccnc2)CN1c1ccccc1 (stereo not drawn)	6.53
O=C(CCNC(=O)Cn1ccc2ccccc2c1=O)NCCCN1CCN(c2ccc(F)cc2)CC1	9.35
CC(C)(C)OC(=O)NCCCCCNC(=O)c1[nH]cnc1C(=O)N[C@@H](Cc1ccccc1)C(=O)OCc1ccccc1	3.68
COc1ccc(OC)c(NC(=O)c2ccc(Cl)cc2)c1	-5.32
CCn1c(=O)c2cc(C(=O)NCC(OC)OC)sc2c2ccccc21	0.202
O=C(CSc1nc2ccc([N+](=O)[O-])cc2[nH]1)NCCc1ccccc1	-22.7
Cc1ccc(C(=O)NCc2nnc3c(C(F)(F)F)cc(Cl)cn23)o1	3.18
CC(C)Sc1nnc(Nc2ccccc2)s1	-8.03
CCOc1ccccc1/C=N/NC(=O)c1cccc(S(=O)(=O)N(CC)CC)c1	-40.3
COCCCNC(=O)/C(C#N)=C/c1c(N2CCN(C)CC2)nc2ccccn2c1=O	40.4
CC(=O)CC(=O)Nc1ncccn1	31.9
Cc1cc(C)c(NN=c2c(=O)c3ccccc3c2=O)c(C)c1	-6.01
C=CCn1c(SCC(=O)Nc2c(C)n(C)n(-c3ccccc3)c2=O)nc2sc(C)c(C)c2c1=O	-31.4
c1ccc(Nc2ncnc3[nH]ncc23)cc1	10.4
NS(=O)(=O)c1ccc(NC(=O)c2cc(-c3cc(Cl)ccc3O)n[nH]2)cc1	15.7
C=CCOC(=O)C1=C(C)NC(=O)NC1/C=C/c1ccccc1 (stereo not drawn)	5.04
CCC(C(=O)N1CCN(Cc2ccc3c(c2)OCO3)CC1)n1c(=O)[nH]c2ccccc2c1=O (stereo not drawn)	-7.51
Cc1ccc2nc(SCC(=O)N3CCOCC3)[nH]c2c1	5.44
Cc1csc(SCCn2c(N3CCOCC3)nc3c2c(=O)[nH]c(=O)n3C)n1	13.7
Cc1ccc(S(=O)(=O)NNC(=O)C2CCN(Cc3ccccc3)CC2)cc1	-15.4
Cc1ccc(CSC2=Nc3ccccc3C3=NC(CCC(=O)NCc4ccco4)C(=O)N23)cc1 (stereo not drawn)	-68.8

Compound	hERG current change (%, negative = inhibition) at 10uM [%]
C/C=C/c1ccc(OCCCNC(C)CC)c(OC)c1.O=C(O)C(=O)O (stereo not drawn)	-14
Cc1cc(C)c(S(=O)(=O)N2CCOC2CNC(=O)C(=O)NCc2ccccn2)c(C)c1 (stereo not drawn)	12.1
Cc1nnsc1C(=O)NC1CCCc2c1cnn2-c1cc(F)cc(F)c1 (stereo not drawn)	-12.1
CCCc1cc(-c2n[nH]c(=S)n2-c2cccc(C)c2)cs1	20.3
CSc1ccccc1C(=O)Nc1ccccc1C	19.7
O=C(NCCN1CCOCC1)C(=O)NCc1ccco1	19.5
O=C(CSc1nc2sc3c(c2c(=O)n1-c1ccccc1)CCCC3)N/N=C/c1ccccc1C(=O)O	4.98
COc1ccc2nc(/C=N/NC(=O)[C@H](CCSC)NC(=O)OC(C)(C)C)ccc2c1	-59.7
CCOC(=O)C1CCN(S(=O)(=O)Cc2ccccc2)CC1	-8.61
O=S(=O)(c1ccccc1)N1N=C(c2ccc(Br)cc2)CC1c1ccco1 (stereo not drawn)	-24.2
CCOC(=O)C1CCCN(c2c(Nc3ccc(C)c(C)c3)c(=O)c2=O)C1 (stereo not drawn)	-25.1
O=C(O)CC(O)C(=O)O (stereo not drawn)	15
Cc1nnc2sc(-c3ccc(NC(=O)c4ccc(-c5ccc(Cl)cc5Cl)o4)cc3)nn12	13.8
CCCC(C)NC(=O)COC(=O)c1ccc2c(c1)C(=O)N(Cc1ccco1)C2=O (stereo not drawn)	15.8
Cc1nc2c(-c3ccc(Cl)cc3)cnn2c(N)c1-c1ccc(F)cc1	22.1
CCCCNc1c(N)n(CCC)c(=O)[nH]c1=O	25.5
CN(CC(=O)Nc1cccc(F)c1)C(=O)C1CCN(S(=O)(=O)c2ccc3c(c2)OCCO3)CC1	-8.39
O=C(CSCc1ccccc1Br)NC1CC1	8.73
CN1CCN(c2nc(-c3ccccc3)ncc2S(=O)(=O)c2ccccc2)CC1	-63.2
COc1ccc(CCNC(=O)CSc2nc3cc(Cl)ccc3o2)cc1OC	-6.21
CCOC(=O)N1CCN(c2c(NCc3ccc(Cl)cc3)c(=O)c2=O)CC1	-17
COC(=O)C1CCN(C(=O)COC(=O)c2cc(-c3ccccc3)nc3ccc(OC)cc23)CC1	-20.1

Compound	hERG current change (%, negative = inhibition) at 10uM [%]
CCOc1nc(NCCc2ccc(OC)c(OC)c2)nc(N2CCN(c3ccc(OC)cc3)CC2)n1	-3.79
Cc1ccc2nc(NC(=O)C3CCN(S(=O)(=O)c4ccc5c(c4)oc(=O)n5C)CC3)sc2c1	-2.35
COc1cc(OC)cc(-n2nnnc2SCC(=O)N2CCCc3ccccc32)c1	2.12
COc1ccc(-c2csc(NC(=O)CN3C(=O)CCC3=O)n2)cc1OC	11.4
CC(=O)N1N=C(c2ccc(C)cc2)CC1c1ccco1 (stereo not drawn)	10.7
S=C(Nc1ccccc1)Nc1ccc2cn[nH]c2c1	-14.5
CC(C)OCCCNC(=O)c1ccc(CN2CCc3ccccc3C2)cc1	-13.2
CCOC(=O)C1CCCN(C(=O)c2cc3c(OC)c(OC)c(OC)cc3[nH]2)C1 (stereo not drawn)	10.4
Cc1ccccc1CS(=O)(=O)c1cn(CC(=O)N2CCOCC2)c2ccccc12	-7.5
Nc1nc2ccccc2n1CCOc1ccc(F)cc1	-67.9
CC(C)COC(=O)Nc1nnc(Cc2ccccc2)s1	3.8
Cc1ccc(C(=O)O)cc1NC(=S)NC(=O)c1ccc([N+](=O)[O-])cc1Cl	10.1
COc1ccc(CNC(=O)C(=O)c2cn(CC(=O)N3CCOCC3)c3ccccc23)cc1	2.82
CCN(CC)c1nc2ccccc2c(N)c1-c1ccccc1.O=C(O)C(=O)O	-77
COc1ccc(CCNC(=O)CN(c2cc([N+](=O)[O-])ccc2OC)S(C)(=O)=O)cc1OC	7.46
Cc1ccc(Cl)cc1N1CCN(C(=O)C2CCC(=O)N(C3CCCCCC3)C2)CC1 (stereo not drawn)	-45.6
CCc1c(C)nc(Nc2nc(C)c3ccc(OC)cc3n2)[nH]c1=O	8.18
COc1ccccc1N1CCN(C(=O)c2ccc(-c3ccccc3)cc2)CC1	-5.25
Cc1cc(C)cc(C(=O)NC(CC(N)=O)c2ccc(NC3CCCC3)c([N+](=O)[O-])c2)c1 (stereo not drawn)	13.2
Cc1cc(C)cc(N(CC(=O)NCc2cccnc2)S(C)(=O)=O)c1	-1.95
CCc1ccc(S(=O)(=O)N2CCN(C(=O)c3cccnc3)CC2)cc1	-10.5
